# From PubChem BioAssay AID485364 (National Center for Advancing Translational Sciences (NCATS), 2010)
# In all, about 360,000 compounds went through this assay and about 11,000 (3.1%) were called active. Inconclusive results, whose numbers are uncertain, are shown with a selection of clear calls. The call rests on the fitted dose curve; in most records, active means well fitted inhibition curve with a large enough effect; inconclusive means small, poorly fitted or top-dose-only effect; inactive means no such curve, though single readings can be large or run the other way. No potency is given beside an inconclusive call; the fits are too rough.
# Target: Schistosoma mansoni thioredoxin glutathione reductase (TGR) (UniProt Q962Y6)
# Assay: qHTS Assay for the Inhibitors of Schistosoma Mansoni Peroxiredoxins; further: nearly all actives have a fitted effect of over 60% in size
# Conditions: purified TGR, DTNB reduction, TNB absorbance 405 nm; activity change, negative = inhibition: at 114 µM (top of the series) unless noted
# Summary of the method: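 TGR 20 nM + NADPH 100 uM (dispensed conc.), cpd preinc 15 min RT; start with NADPH (500 uM addition) then DTNB (15 mM addition). Kinetic TNB absorbance, 405 nm filter. Four-parameter Hill fit across titration.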
# On the % scale 0 is the no-effect control and ±100 the full control effect; potency means the concentration at half of the fitted maximal effect; tags describe the fitted curve by direction and shape.
Structure (SMILES),Potency,"activity change, negative = inhibition"
O=[N+]([O-])c1cc(/C=N\Nc2nccs2)ccc1O,active: 28.2 µM,–
CC1CCC2C(C)C(=O)OC3OC4(C)CCC1C32OO4 (stereo unspecified),–,inactive: 3.48%
CCOC(=O)c1c(-c2ccco2)csc1NC(=O)CSc1nnc(N)s1,"inconclusive [inhibitor, partial curve]",–
Cc1ccccc1NC(=O)c1cccc(N2C(=O)C3C4CCC(C4)C3C2=O)c1 (stereo unspecified),–,inactive: 0.492%
CC(C)(C)OC(=O)N1CCN(C(=O)c2nc[nH]c2C(=O)N2CCN(c3ccccc3)CC2)CC1,"inconclusive [inhibitor, partial curve]",–
Cc1ccc(CCC(=O)NCc2ccccc2)o1,active: 35.5 µM,–
COC(=O)N/N=C/c1cn(CCOc2ccc(OC)cc2)c2ccccc12,"inconclusive [inhibitor, partial curve]",–
CCCCCc1nnc(NC(=O)CN2C(=O)C3CCCCC3C2=O)s1 (stereo unspecified),–,inactive: -0.755%
CCSc1ncc(Cl)c(C(=O)Nc2c(C(=O)Nc3ccc(Cl)cc3)oc3ccccc23)n1,"inconclusive [inhibitor, single point]",–
Cc1cc2c(c(C)nn2-c2ccccc2)c(=O)o1,"inconclusive [inhibitor, full curve, poor fit]",–
CCc1nnc(N/N=C/c2cc(Br)c(O)cc2O)n1N,active: 35.5 µM,–
CC1=C(C(=O)O)N2C(=O)C(NC(=O)c3ccccc3Cl)C2SC1 (stereo unspecified),"inconclusive [inhibitor, partial curve]",–
O=C(COC(=O)c1cccs1)NCc1ccccc1,–,inactive: -21.1% [at 11.4 µM]
Oc1ccc2ccccc2c1C=NC12CN3CCN(CN(C3)C1)C2,active: 44.7 µM,–
CC(=O)Nc1nc2n(n1)C(c1ccccc1)C=C(c1ccccc1)N2 (stereo unspecified),active: 3.98 µM,–
Cc1ccc(C)c(Cn2nnc3c(=O)[nH]c(C(=O)NCc4ccco4)nc32)c1,"inconclusive [inhibitor, partial curve]",–
Cc1cc(NC(=O)C(=O)c2c(C)[nH]c3ccccc23)no1,"inconclusive [inhibitor, single point]",–
COC1=C(Nc2ccc(O)cc2)C(=O)c2ccccc2C1=O,"inconclusive [inhibitor, partial curve]",–
c1ccc(-c2nc3nc4ccccc4nc3n2Cc2ccco2)cc1,active: 10 µM,–
C=CCNc1oc(-c2cccc3ccccc23)nc1C#N,"inconclusive [inhibitor, single point]",–
O=C(N/N=C/c1ccc(N2CCOCC2)o1)c1cccc(F)c1,active: 10 µM,–
